# Test results: PubChem BioAssay AID485344 (National Center for Advancing Translational Sciences (NCATS), 2010)
# Screen size: about 340,000 compounds; about 6,900 (2%) were called active. No stated cut-off is given here; in the data, active means inhibition above about 30%; inactive means below that, where a call was filed. The entries are a selection whose mix differs from that of the whole data set. Entries without a call were filed so in the source.
# Target: D(2) dopamine receptor (Homo sapiens) (UniProt P14416)
# Test: HTS Assay for Allosteric Antagonists of the Human D2 Dopamine Receptor: Primary Screen for Antagonists; further: 0% is about no effect
# Details: HEK293 TREx D2 cells, calcium flux, dopamine EC80; at 10 µM; stronger effect = higher value
# How it was run: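 In this primary screen, negative modulation is detected by tracking calcium flux after an EC80 dopamine challenge in inducible HEK293 T-REx D2 cells preexposed to test compound for 180 s.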
# Chain of UniProt P14416 (P14416 whole entry, looked up): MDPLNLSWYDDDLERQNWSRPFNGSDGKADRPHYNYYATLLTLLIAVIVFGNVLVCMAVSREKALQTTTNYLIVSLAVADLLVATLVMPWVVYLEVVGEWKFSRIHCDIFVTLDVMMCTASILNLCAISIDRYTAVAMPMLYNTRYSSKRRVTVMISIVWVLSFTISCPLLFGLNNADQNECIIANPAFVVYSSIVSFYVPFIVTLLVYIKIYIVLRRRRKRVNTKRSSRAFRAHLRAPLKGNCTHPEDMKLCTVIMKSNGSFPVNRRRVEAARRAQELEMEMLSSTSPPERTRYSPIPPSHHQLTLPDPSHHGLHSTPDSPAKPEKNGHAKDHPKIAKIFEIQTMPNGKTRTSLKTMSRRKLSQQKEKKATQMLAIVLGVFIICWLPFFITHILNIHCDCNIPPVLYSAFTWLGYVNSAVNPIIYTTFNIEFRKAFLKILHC
row,Compound,inhibition
1,CCC1=C(c2ccc(C)cc2)S(=O)(=O)N=C1N1CCC(C(=O)NCCc2ccc(Cl)cc2)CC1,8.19%
2,O=C(CC1N=C2c3ccccc3N=C(SCc3cccc(Cl)c3)N2C1=O)NCCc1ccccc1 (stereo not drawn),11.1%
3,Cc1ccc(S(=O)(=O)C(CNC(=O)C(=O)NCCc2ccc(Cl)cc2)c2cccs2)cc1 (stereo not drawn),-4.42%
4,CCCCNC(=O)CCn1c(=O)c2cccn2c2cccnc21,-9.23%
5,CCN(C(=O)c1c(C)oc2ncn(CC(C)C)c(=O)c12)c1cccc(Cl)c1,-7.96%
6,COc1cc(/C=C2\SC(N3CCc4ccccc4C3)=NC2=O)cc(OC)c1OC,active: 56.3%
7,CCCn1c(CCC(=O)Nc2ccc(C)c(Cl)c2)nc2cccnc21,22.2%
8,Cc1oc(-c2ccc(C(=O)NCc3ccccc3Cl)cc2)nc1CN1CCc2ccccc21,2.03%
9,COc1ccc(C)cc1NC(=O)c1cc(S(=O)(=O)N2CCc3ccccc3C2)ccc1F,-8.55%
10,CC(=O)N(C(C)=O)c1nc2nc(C)cc(C)n2n1,active: 102%
11,Cc1ccc(-n2c(=O)c3c(c4cc(C)ccc4n3C)n(Cc3ccc(F)cc3)c2=O)cc1,4.15%
12,Cc1ccc(NC(=O)C(Cc2ccccc2)N2Cc3ccccc3C2=O)cc1Cl (stereo not drawn),14.2%
13,O=C(c1cc(F)ccc1F)C1CCCN(C(=O)CCN2CCCCO2)C1 (stereo not drawn),active: 31.7%
14,CC(C)c1ccc(NC(=O)c2ccc3c(O)c(S(=O)(=O)c4ccccc4)c(=O)[nH]c3c2)cc1,2.32%
15,O=C(NCCCN1CCCC1=O)c1ccc2c(c1)NC(=O)C(N1CCOCC1)S2 (stereo not drawn),active: 32.9%
16,O=c1c2ccccc2n2c(-c3ccccc3F)nnc2n1CCc1ccccc1,13.2%
17,CC(C)[C@@H](C(=O)OCC(=O)Nc1ccc2c(c1)OCO2)N1C(=O)c2ccccc2C1=O,active: 46.3%
18,COc1cc(OC)c(N(C)C(=O)c2cc3c(=O)oc4ccccc4c3s2)cc1Cl,-12.9%
19,Cc1ccc(-n2nc(C(=O)N(C)Cc3ccccc3)c3c4ccccc4n(C)c3c2=O)cc1,7%
20,CC1(C2CC2)NC(=O)N(CC(=O)NCc2ccc(Cl)cc2Cl)C1=O (stereo not drawn),active: 40%
21,Cc1ccc(C(=O)N(c2ccc(C)cc2)S(=O)(=O)c2ccc(Cl)cc2)cc1,5.74%
22,COc1ccccc1N=C1SC(C(=O)Nc2ccccc2OC)CC(=O)N1C (stereo not drawn),2.74%
23,CCOC(=O)c1noc2ncnc(NCc3ccccc3OC)c12,5.71%
24,COc1ccccc1NC(=O)CSC1=Nc2ccccc2C2=NC(CC(=O)NCc3ccc4c(c3)OCO4)C(=O)N12 (stereo not drawn),-3.01%

row,Compound,inhibition
1,O=C(NCCOCCn1c(=O)oc2ccccc21)Nc1cccc(Cl)c1,-2.9%
2,COC(=O)c1ccccc1NC(=O)C1CCCN(c2ncnc3onc(C)c23)C1 (stereo not drawn),1.73%
3,Cc1ccc(CNC(=O)c2sc3nc4n(c(=O)c3c2C)CCCCC4)cc1,-6.06%
4,Cc1cccc(NC(=O)c2ccc(CNS(=O)(=O)c3ccc4c(c3)C(C)(C)C(=O)N4C)cc2)c1,-9.56%
5,COc1ccc(C(=O)CN2CCN(c3ncccn3)CC2)cc1,active: 39.2%
6,CSc1cccc(NC(=S)N(CCCN2CCCC(C)C2)Cc2cccs2)c1 (stereo not drawn),active: 45.6%
7,O=C(CCN1CCN(Cc2ccccc2)CC1)Nc1ccc(OCc2ccccc2)cc1,active: 42%
8,Cc1ccccc1C(=O)N(Cc1ccc(N(C)C)cc1)CC1CCCO1 (stereo not drawn),-6.51%
9,CCN1CCC2(CC1)C(C#N)=C(N)Oc1c2sc2nc(C)cc(C)c12,active: 53.2%
10,CN1C(=O)C(C)(C)c2cc(S(=O)(=O)N3CCCC3C(=O)Nc3ccc(F)cc3)ccc21 (stereo not drawn),-5.62%
11,CCOC(=O)COc1ccc(F)cc1C(=O)c1ccn2nc(-c3ccc(C)cc3)cc2n1,0.827%
12,COc1cc(C(=O)N(Cc2cccnc2)c2nc3cc(C)c(C)cc3s2)cc(OC)c1OC,-19.8%
13,COc1cc(Cl)c(C)cc1NC(=O)c1sc2nc(C)cc(C)c2c1N,16.3%
14,Cc1ccsc1CN(C(=O)COc1cccc(C)c1C)C1CCS(=O)(=O)C1 (stereo not drawn),-0.901%
15,COc1ccccc1NC(=O)C(Cc1ccccc1)NS(=O)(=O)c1cccc2nsnc12 (stereo not drawn),-8.02%
16,CCCCOC(=O)c1cccc(NC(=O)/C=C/c2ccccc2Cl)c1,-2.25%
17,COC(=O)c1ccc(Cl)cc1NC(=O)N(Cc1ccc(OC)cc1)C1CCN(C(C)=O)CC1,2.33%
18,O=C(Cn1c(SCC(=O)Nc2ccc(F)cc2)nc2ccccc21)NCc1ccccc1Cl,-7.68%
19,COc1ccc(OC)c(NC(=O)CSc2nc3ccccc3c(=O)n2CCC(=O)NC2CCCCC2)c1,7.09%
20,Cc1cccc(NC(=O)CN(C)CC(=O)NC(c2ccccc2)c2ccccc2)c1C,active: 32.7%
21,Cc1ccc(S(=O)(=O)NCc2ccc(C(=O)NCCc3cccc(C)c3)cc2)cc1,8.42%
22,COc1ccc(S(=O)(=O)N(Cc2nc(-c3ccc(Cl)cc3)no2)C2CCCCC2)cc1,0.206%
23,N#Cc1c(C(F)(F)F)cc(-c2cccs2)nc1SCC(=O)Nc1cccc(C(F)(F)F)c1,-1.74%
24,O=C(c1ccccc1Br)N1CCC(c2nc3ccccc3o2)CC1,4.11%

row,Compound,inhibition
1,Cc1ccc(Cn2c(=O)n(-c3cc(C)cc(C)c3)c(=O)c3oc4ccccc4c32)cc1,-0.835%
2,O=S(=O)(c1ccc(-n2cnnn2)cc1)N1CCN(c2cccc(C(F)(F)F)c2)CC1,13.6%
3,Cc1oc(C)c2c(=O)cc(-c3ccc4c(c3)OCO4)cc(OC(=O)c3cccc(Cl)c3)c12,10.7%
4,CCC(C(=O)Nc1ccc(C(=O)OC)cc1)n1nc(-c2ccc(C)c(C)c2)ccc1=O (stereo not drawn),-18.2%
5,COc1cc(OC)cc(C(=O)Nc2cc(-c3nc4cccnc4s3)ccc2C)c1,-22.6%
6,Cc1c(C(=O)OC2CCCCCC2)[nH]c2c1C(=O)CC(c1ccc(N(C)C)cc1)C2 (stereo not drawn),14%
7,COc1ccc(NC(=O)C2CCN(S(=O)(=O)c3ccc4c(c3)CCCC(=O)N4)CC2)c(OC)c1,-6.96%
8,CCOc1ccc(Nc2sc(C(=O)c3cccc(OC)c3)c(N)c2S(=O)(=O)c2ccccc2)cc1,-15.9%
9,Cn1c(=O)c(=O)n(C)c2cc(S(=O)(=O)N3CCCC3C(=O)Nc3ccc(F)cc3)ccc21 (stereo not drawn),-5.68%
10,Cc1ccc(C)c(N2N=C(C(=O)Nc3ccc(N4CCOCC4)cc3)CCC2=O)c1,active: 35.1%
11,CCOc1ccc(CNC(=O)Cn2ccc3cc(S(=O)(=O)N4CCCCC4)ccc32)cc1,-8.68%
12,COc1ccc(S(=O)(=O)N(CC(=O)NCCSCc2ccccc2)c2ccc(C)cc2)cc1,1.99%
13,Cc1ccc(NC(=O)CSc2ccc(-c3ccccn3)nn2)cc1F,-26.8%
14,COc1ccc(-n2cc(C(=O)OCc3ccc(Cl)cc3)c3ccccc3c2=O)cc1,-4.64%
15,CN(C)c1ccc(C(CNS(=O)(=O)c2ccc(F)cc2)N2CCOCC2)cc1 (stereo not drawn),-20.7%
16,COc1ccc2c(c1)c1c(c(=O)n(-c3ccccc3)c(=O)n1CC(=O)NCc1ccc(C)cc1)n2C,-2.24%
17,CSc1nn(Cc2cccc(Cl)c2)c(N(C(C)=O)C(C)=O)c1S(=O)(=O)c1ccccc1,-1.34%
18,O=C(CSc1nc2nccnc2c(=O)n1CCc1c[nH]c2ccccc12)Nc1ccc(F)cc1,1.54%
19,COc1ccc(CC(=O)N(Cc2nc(-c3ccc(C)cc3)no2)C(C)C)cc1,-8.88%
20,COc1ccc(C2C(=O)N(C3CCC(C)CC3)CC(=O)N2C2CCCC2)cc1OC (stereo not drawn),6.78%
21,COc1cccc(NC(=O)CSC2=Nc3ccccc3C3=NC(CC(=O)NCc4ccc5c(c4)OCO5)C(=O)N23)c1 (stereo not drawn),3.03%
22,COc1ccc(C)cc1NC(=O)Nc1ccccc1OCc1cc(=O)n2ccccc2n1,-9.19%
23,CCCCNC(=O)c1cnc2sc(N3CCCCCC3)nn2c1=O,4.48%
24,Cc1ccccc1-c1noc(-c2ccc(N3CCN(C)CC3)c([N+](=O)[O-])c2)n1,-16.5%

row,Compound,inhibition
1,Cc1cc(C)c(NC(=O)C(=O)NCC(c2cccnc2)N2CCN(Cc3ccccc3)CC2)c(C)c1 (stereo not drawn),-8.66%
2,Cc1c(C(=O)N(Cc2ccco2)Cc2ccccc2Cl)oc2ccc(F)cc12,-6.9%
3,CN(C)c1ccc(NC(=O)CSc2nc3ccsc3c(=O)n2CCCCCC(=O)O)cc1,-9.67%
4,COc1ccc(OC(C)C(=O)NCc2nc(-c3cccc(C)c3)no2)cc1 (stereo not drawn),-21.3%
5,O=C(OCC(=O)N1CCCc2ccccc21)c1ccc(S(=O)(=O)C(F)F)cc1,active: 42.3%
6,CC(=O)c1cccc(NC(=O)Cc2noc3ccccc23)c1,-8.33%
7,CC(C)CCNC(=O)CN1C(=O)c2cccnc2Sc2ccccc21,-3.81%
8,O=C(Nc1ccc2nc(SCCOc3ccccc3Cl)sc2c1)c1ccc2c(c1)OCO2,-5.08%
9,CCCCC(=O)NC1(C(F)(F)F)C(=O)Nc2c1c(=O)[nH]c(=O)n2-c1ccc(C)c(C)c1 (stereo not drawn),3.46%
10,COc1ccc(CC(=O)Nc2cc(-c3cn4cccnc4n3)ccc2OC)cc1,-8.37%
11,O=C(CNC(=O)c1ccc(Cl)cc1)OCC(=O)c1ccc2c(c1)OCCO2,active: 41.2%
12,CCCCOc1ccccc1C(=O)N(Cc1cccc(F)c1)C1CCS(=O)(=O)C1 (stereo not drawn),-7.22%
13,O=C(COC(=O)/C=C/c1ccc(S(=O)(=O)N2CCOCC2)cc1)NCc1ccc(Cl)cc1,active: 46.5%
14,CCOc1ccc(CCNC(=O)CSc2nnnn2-c2ccc(C)cc2C)cc1OCC,-3.16%
15,CCOC(=O)C1=C(CN(C)Cc2ccccc2)NC(=O)NC1c1ccc(OC)cc1 (stereo not drawn),0.438%
16,CCOc1ccc(NC(=O)N(C)CCc2c(C)nn(C)c2C)cc1,-23.7%
17,O=C(NCC(c1cccnc1)N1CCc2ccccc21)c1ccc(F)cc1 (stereo not drawn),4.91%
18,CC(=O)N1CCc2cc(S(=O)(=O)NC(CC(C)C)C(=O)NCCc3cccc(C)c3)ccc21 (stereo not drawn),6.03%
19,CCn1c(SCC(=O)Nc2cc(C)on2)nc2sc(C)c(C)c2c1=O,active: 35.5%
20,CCOc1ccccc1CNC(=O)CSc1nnc(C)c2c(C)n(-c3ccccc3)nc12,0.992%
21,Cc1oc(-c2ccccc2Cl)nc1CS(=O)(=O)CC(=O)NC(C)c1ccccc1 (stereo not drawn),12.4%
